# Test results from PubChem BioAssay AID1347055 (National Center for Advancing Translational Sciences (NCATS), 2019).
# Where “and” joins values, the source holds several entries; their conditions need not be identical. Identical values can stand only once. Out of some 54,000 compounds screened, about 120 (0.22%) were called active. The inconclusive results got no clear call from the source; some entries with a clear call stand among them for comparison. The call rests on the fitted dose curve; in most records, active means well fitted inhibition curve with a large enough effect; inconclusive means small, poorly fitted or top-dose-only effect, or effect the other way; inactive means flat fitted curve, though single readings scatter. Potencies of inconclusive entries are doubtful fits and often do not repeat.
# Target: Fumarate hydratase, mitochondrial (Homo sapiens) (UniProt P07954)
# UniProt P07954, sequence (P07954 whole entry, looked up): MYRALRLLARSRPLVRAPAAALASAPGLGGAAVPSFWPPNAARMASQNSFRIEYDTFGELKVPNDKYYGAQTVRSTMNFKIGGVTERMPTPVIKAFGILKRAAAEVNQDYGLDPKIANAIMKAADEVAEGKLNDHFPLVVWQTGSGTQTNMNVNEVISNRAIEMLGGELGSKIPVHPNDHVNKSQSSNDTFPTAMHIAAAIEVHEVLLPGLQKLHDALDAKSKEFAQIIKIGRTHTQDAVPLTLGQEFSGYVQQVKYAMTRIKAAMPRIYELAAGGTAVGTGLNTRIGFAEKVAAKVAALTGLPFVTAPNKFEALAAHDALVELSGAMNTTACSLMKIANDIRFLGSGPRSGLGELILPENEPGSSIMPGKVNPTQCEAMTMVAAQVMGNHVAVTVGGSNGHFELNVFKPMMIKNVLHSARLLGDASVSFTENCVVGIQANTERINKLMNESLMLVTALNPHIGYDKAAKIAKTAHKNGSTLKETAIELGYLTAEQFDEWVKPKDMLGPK
# Experiment: Identification of activators of human fumarate hydratase by quantitative high-throughput screening; further: the screen sought activators but most active calls are inhibition curves; nearly all actives have a fitted effect of over 45% in size
# Details: FH coupled MDH/diaphorase resazurin fluorescence, 15 min; activity change, negative = inhibition: at 79.9 µM (top of the series)
# On the % scale 0 is the no-effect control and ±100 the full control effect; potency means the concentration at half of the fitted maximal effect; tags describe the fitted curve by direction and shape.
SMILES,Potency,"activity change, negative = inhibition"
Cc1ccc(C)c(N2CCN(CCCNC(=O)c3cnn(-c4ccc(F)cc4)c3C3CCN(C(=O)OC(C)(C)C)CC3)CC2)c1,"inconclusive: 39.8 µM [inhibitor, single point]",
C[C@H](Oc1cc(-c2cnn(C3CCNCC3)c2)cnc1N)c1c(Cl)ccc(F)c1Cl,inactive,
CCOc1ccc(-c2nc(CSCC(=O)NCc3ccc(Cl)cc3)c(C)o2)cc1,"inconclusive: 2.51 µM [inhibitor, full curve]",
O=S1(=O)c2ccccc2N(Cc2cccc(Cl)c2)c2ccccc21,"inconclusive: 1.78 µM [inhibitor, full curve, poor fit]",
COc1ccc(CCNC(=O)c2ccc3c(c2)ncn3-c2ccc(C)cc2C)cc1OC,"inconclusive: 39.8 µM [inhibitor, partial curve, poor fit]",
C#Cc1cccc(Nc2ncnc3cc(OC)c(OC)cc23)c1,inactive,
O=C(NCc1ccc(OC(F)(F)F)cc1)C1c2c(F)cccc2C(=O)N1CCc1ccccn1 (configuration not stated),inactive,
COc1ccc(-c2nn3c(-c4ccccc4C)nnc3c3ccccc23)cc1,"inconclusive: 50.1 µM [inhibitor, partial curve, poor fit]",
COc1ccccc1Nc1nn2c(=O)c3ccc(C(=O)N4CCCC(C)C4)cc3nc2s1 (configuration not stated),"inconclusive: 35.5 µM [inhibitor, partial curve, poor fit]",
Cc1ccc(S(=O)(=O)NCc2nc(-c3cccc(C)c3)no2)cc1,"inconclusive: 35.5 µM [inhibitor, partial curve, poor fit]",
Cc1ccc(S(=O)(=O)N2CCCc3cc(NS(=O)(=O)c4cc(C)ccc4C)ccc32)cc1,"inconclusive: 44.7 µM [inhibitor, partial curve, poor fit]",
Cc1cccc(-n2ncc3c(Nc4ccc(C)c(Cl)c4)ncnc32)c1,"inconclusive: 22.4 µM [inhibitor, partial curve, poor fit]",
N#C/C(=C\c1ccc(O)c(O)c1)C(=O)NCCCNC(=O)/C(C#N)=C/c1ccc(O)c(O)c1,"inconclusive: 25.1 µM [inhibitor, partial curve, poor fit] and inconclusive: 28.2 µM [inhibitor, partial curve]",
CCOC(=O)c1c(-c2ccccc2)oc2ccc(N(C(C)=O)S(=O)(=O)c3ccc(CC)cc3)cc12,"inconclusive: 5.62 µM [inhibitor, partial curve, poor fit]",
COc1ccc(CCNC(=O)c2ccc3c(c2)N(Cc2ccc(F)cc2)C(=O)CS3)cc1OC,"inconclusive: 15.8 µM [inhibitor, partial curve]",
CCn1c(=O)cc(SCC(=O)NCc2ccc(OC)cc2OC)c2ccccc21,inactive,
CC(C)C(O)(CO)CCO[C@@H]1O[C@H](CO[C@H]2OC[C@](O)(CO)[C@H]2O)[C@@H](O)[C@H](O)[C@H]1O (some centres not stated),inactive,
COc1ccc(NC(=O)CSc2nc3nc(C)c(Cc4ccccc4)c(C)n3n2)cc1OC,"inconclusive: 35.5 µM [inhibitor, single point]",
COc1ccc2sc(N(Cc3cccnc3)C(=O)C3CCCCC3)nc2c1,"inconclusive: 50.1 µM [inhibitor, partial curve, poor fit]",

SMILES,Potency,"activity change, negative = inhibition"
Cc1cccc(NS(=O)(=O)c2ccc3[nH]c4c(c3c2)CCCCCC4)c1,"inconclusive: 35.5 µM [inhibitor, single point]",
CCOc1cccc2c1N[C@@H](c1ccc(C(=O)O)cc1)[C@H]1CC=C[C@@H]21,active: 28.2 µM,
CCCCN(CC)C(=O)CSc1nc2n[nH]c(C)c2c(=N)n1-c1ccc(CC)cc1,"inconclusive: 35.5 µM [inhibitor, single point]",
CC(=O)Nc1cccc(-c2nc(-c3ccccc3)no2)c1,inactive,
CCOC(=O)c1ccc(N2C(=O)c3n[nH]c(-c4ccco4)c3C2c2ccc(C(=O)OC)cc2)cc1 (configuration not stated),"inconclusive: 28.2 µM [inhibitor, partial curve, poor fit]",
Cc1ccc(N(CC(=O)N2CCN(c3cc(C)ccc3C)CC2)S(=O)(=O)c2c(C)nn(C)c2C)cc1,"inconclusive: 31.6 µM [inhibitor, single point]",
O=C(Cn1nc(C(F)(F)F)c2c1CCCC2)Nc1cccc(Cl)c1,"inconclusive: 6.31 µM [inhibitor, partial curve, poor fit]",
CCC(C)NC(=O)c1cc(Sc2cccc(Cl)c2)nc2ccccc12 (configuration not stated),inactive,
Cc1ccc(Cl)cc1N1CCN(c2ncnc3c2nc2n3CCCC2)CC1,"inconclusive: 31.6 µM [inhibitor, partial curve]",
CCCN(C(=O)c1cc(S(=O)(=O)N2CCc3ccccc32)cn1C)c1ccc(OCC)cc1,"inconclusive: 25.1 µM [inhibitor, partial curve, poor fit]",
Cc1cccn2c(=O)c3cc(C(=O)NCC(C)C)sc3nc12,inactive,
COC(=O)c1ccc2c(=O)n(CCCCCC(=O)NCCc3ccccc3)c(=O)[nH]c2c1,,inconclusive: -44.3% [inhibitor]
Nc1cc(-c2ccncc2)c[nH]c1=O,"inconclusive: 24.6 µM [inhibitor, partial curve, poor fit]",
Cc1cccc2c1-c1sc(C(=O)NCCCN3CCN(c4ccccc4F)CC3)cc1CO2,"inconclusive: 28.2 µM [inhibitor, partial curve, poor fit]",
Cc1ccc(-c2nn3c(=O)cc(CN4CCN(C(=O)Nc5cccc(C(F)(F)F)c5)CC4)nc3s2)cc1,"inconclusive: 44.7 µM [activator, single point]",
Cc1ccccc1OCCn1cc(C(=O)c2ccco2)c2ccccc21,"inconclusive: 35.5 µM [inhibitor, partial curve, poor fit]",
COc1ccc(-c2cc3nc(C)c(CCC(=O)NCCc4ccc(Cl)cc4)c(C)n3n2)c(OC)c1,"inconclusive: 31.6 µM [inhibitor, partial curve, poor fit]",
COc1cc(CNC(=O)c2ccc3nc(Cc4ccccc4)oc3c2)cc(OC)c1OC,"inconclusive: 25.1 µM [inhibitor, single point]",
